# According to PubChem BioAssay AID1347073 (National Center for Advancing Translational Sciences (NCATS), 2019):
# About 200 (0.44%) of roughly 45,000 compounds were called active. About 7% were inconclusive and are not listed. The call rests on the fitted dose curve; in most records, active means well fitted activation curve with a large enough effect; inconclusive means small, poorly fitted or top-dose-only effect; inactive means no such curve, though single readings can be large or run the other way. This is one part of the list.
# Experiment: qHTS of TDP-43 Inhibitors: NCGC Sytravon Library Screen; further: nearly all actives have a fitted effect of over 55% in size; on growth rescue (activation): 0% is about no effect
# Settings: yeast TDP-43 toxicity rescue, BacTiter-Glo growth, 24 h; series mostly up to 46.1 µM; growth rescue (activation): at the top concentration
# Procedure, shortened: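 TDP-43-expressing yeast, pregrown in raffinose, seeded at OD600 0.02 in galactose medium with compound for 24 hr at 30 deg C. Growth read by BacTiter-Glo luminescence, so rescue of toxicity appears as activation.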
# Potency means the concentration at half of the fitted maximal effect.
Compound,growth rescue (activation),Potency
N#CCc1c(C#N)c(N)nc(N2CCCC(O)C2)c1C#N (centres undefined),inactive: -0.736%,
COc1ccccc1NC(=O)CSc1nncs1,inactive: 0.837%,
CN(C(=O)c1cc2c(s1)-c1ccccc1S(=O)(=O)C2)c1ccccc1,inactive: 5.28%,
CC(C)C(Sc1nc(-c2ccccc2)cc(-c2ccccc2)c1C#N)C(=O)O (centres undefined),inactive: 13.7%,
O=C(Nc1ccc(NC(=O)c2sc3ccccc3c2Cl)cc1)c1ccco1,inactive: 0.205%,
O=C(Nc1ccccc1)Nc1ccc(Cl)c(S(=O)(=O)N2CCOCC2)c1,inactive: 5.93%,
COc1ccc(CN(C)C(=O)CCN2C(=O)c3ccccc3C2=O)c(OC)c1OC,inactive: 8.03%,
Cc1c(Cl)cccc1NC(=O)C1CC(=O)N(C2CCCC2)C1 (centres undefined),inactive: -1.12%,
COc1ccc(/C=C2\SC(=O)N(CCNC(=O)CCS(=O)(=O)c3ccc(C)cc3)C2=O)cc1,inactive: 1.15%,
COc1cc(Cn2c(C(=O)O)cc3sccc32)cc(OC)c1OC,inactive: 8.55%,
CC(C)c1ccc(NC(=O)C2Cc3c(-c4ccccc4Oc4ccccc4)ccnc3O2)cc1 (centres undefined),inactive: 3.1%,
O=C(Nc1ccccc1)c1ccc(=O)[nH]n1,inactive: -7.49%,
COCCCNC(=S)N(CCO)Cc1cc2cc3c(cc2[nH]c1=O)OCO3,inactive: -3.6%,
Cc1cccc(/C=N/NC(=O)c2cccc(Cl)c2)n1,inactive: 14.3%,
CCn1c(=N)n(CC(=O)c2ccc(Cl)c(Cl)c2)c2ccccc21,inactive: 16.3%,
Cc1cc(NC(=O)CS(=O)(=O)c2cn(Cc3cccc(F)c3)c3ccccc23)no1,inactive: -1.26%,
CCNc1nc(Oc2ccc(OC)cc2)cc(C(F)(F)F)n1,inactive: 17.2%,
CCSC1=C(C#N)C2(CCCCC2)C2=C(CC(C)(C)CC2=O)N1,inactive: 10.6%,
CC(=O)Nc1sc(NC(=O)c2ccc(Cl)cc2)nc1-c1cccs1,inactive: 26.5%,
NNC(=O)CSc1c(-c2ccccc2)c2cc(Cl)ccc2[nH]c1=O,inactive: -7.12%,
CCOC(=O)CCn1c(=O)c2c(nc(Br)n2Cc2ccccc2)n(C)c1=O,inactive: -27%,
CCCC(C(=O)NCCc1ccc(S(N)(=O)=O)cc1)c1ccccc1 (centres undefined),inactive: 16.1%,
COc1ccc(NC(=O)C2(C)CCN2Cc2ccc3ccccc3c2)cc1OC (centres undefined),inactive: -6.76%,

Compound,growth rescue (activation),Potency
CCOC(=O)C1CCN(C(=O)COc2ccc(C(=O)c3ccccc3)cc2)CC1,inactive: 5.73%,
Cc1cc(C)nc(SCC(=O)NN)n1,inactive: 12.8%,
Cc1cc(C)c(C(=O)Nc2ccc(S(=O)(=O)Nc3ccccn3)cc2)c(C)c1,inactive: 9.31%,
CC(C)c1cccc(C(C)C)c1NC(=O)COC(=O)c1ccc2c(c1)S(=O)(=O)c1ccccc1C2=O,inactive: -21.8%,
Cc1ccc(S(=O)(=O)N2CCC(C(=O)NC3CC(C)(C)NC(C)(C)C3)CC2)cc1,inactive: -8.71%,
COc1ccc(NC(=O)C2(C)CCN2C(=O)C(C)C)cc1F (centres undefined),inactive: 11.8%,
CC1CN(C(C)C(=O)NNC(=O)c2ccc(F)cc2)CC(C)O1 (centres undefined),inactive: -10%,
COC(=O)c1ccc(OC(C)C(=O)c2ccc(C)cc2)cc1 (centres undefined),inactive: 6.63%,
CCc1cccc(Nc2cnn(C34C[C@@H]5C[C@@H](CC(CC(=O)O)(C5)C3)C4)c(=O)c2Cl)c1,inactive: 2.39%,
Cc1ccc(CCNC(=O)C23C[C@H]4C[C@@H](C2)CC(n2nnc(C)n2)(C4)C3)cc1,inactive: 1.1%,
Cc1ccccc1N1CCN(C2CCCN(C(=O)c3ccnn3C)C2)CC1 (centres undefined),inactive: -29.4%,
CC(C)C(C)NC(=O)CN1C(=O)NC2(CCCc3ccccc32)C1=O (centres undefined),inactive: -5.43%,
CCOC(=O)C1(Cc2ccccc2)CCCN(Cc2ccc(OCCO)cc2)C1 (centres undefined),inactive: 5.47%,
O=C(CP(=O)(c1ccccc1)c1ccccc1)N1CCOCC1,inactive: -15.5%,
C/C(=N/NC(=O)COc1ccc(C(C)(C)C)cc1)c1ccc(N2CCOCC2)cc1,inactive: 12.7%,
CC(=O)c1c(C)[nH]c(C(=O)CN2CCN(S(=O)(=O)c3ccccc3F)CC2)c1C,inactive: 20.9%,
O=C(CCn1c(=O)c2sccc2n(Cc2ccc(F)cc2Cl)c1=O)NCc1ccc2c(c1)OCO2,inactive: 0.706%,
CCc1ccc(C(C)NC(=O)c2ncn[nH]2)cc1 (centres undefined),inactive: 3.99%,
Cc1c(NC(=O)c2cc3c(s2)CCCC3)c(=O)n(-c2ccccc2)n1C,inactive: 11.6%,
CC1CCN(C(=O)COC(=O)c2cccs2)CC1,inactive: -6.44%,
NS(=O)(=O)c1ccc(CCNC(=O)CNCCc2ccccc2)cc1,inactive: -0.384%,
CN(C)C(CNC(=O)c1cccc(OC(F)F)c1)c1ccco1 (centres undefined),inactive: -11.1%,
CCOc1ccc2nc(SCC(=O)NNC(=O)c3ccco3)c(C)cc2c1,inactive: -0.386%,

Compound,growth rescue (activation),Potency
COc1ccc(NC(=O)C2(C)Cc3c(-c4cccc(C(N)=O)c4)ccnc3O2)cc1 (centres undefined),inactive: 11.6%,
COc1ccc(Nc2c3c(nc4nncn24)CCC3)cc1OC,inactive: 16.7%,
CCN(CC)S(=O)(=O)c1cc(NC(=O)Cc2ccsc2)ccc1C,inactive: -2.32%,
CCCn1c(SCC(=O)Nc2cc(Cl)ccc2Cl)n[nH]c1=O,inactive: 15.1%,
CCn1ncc(NC(=S)NCCc2ccccc2)c1C(N)=O,inactive: 2.63%,
Cc1ccc(Nc2nc(NCc3cccs3)nc3ccsc23)c(C)c1,inactive: 7.93%,
O=C(CN(C(=O)CNS(=O)(=O)c1ccc(F)cc1)c1cccc(F)c1)NCC1CCCO1 (centres undefined),inactive: 9.57%,
CC(C)n1c(NCc2c[nH]c3ccccc23)nc2ccccc21,inactive: 13.2%,
NC(=O)c1ccsc1NC(=O)CSc1nnc(Nc2ccccc2)s1,inactive: 5.73%,
NC1=NC(=O)C(Cc2ccc(F)cc2)S1 (centres undefined),inactive: 3.75%,
c1ccc2[nH]c(CSc3nc4ccccc4s3)nc2c1,inactive: -8.27%,
C=CCOC(=O)C1=C(C)NC(=O)NC1/C=C/c1ccccc1 (centres undefined),inactive: 1.3%,
Cc1c(CC(=O)NCCCCCC(=O)O)c(=O)oc2cc3c(cc12)CCC(C)(C)O3,inactive: 10.8%,
COC(=O)c1cc(OC(=O)CCc2ccc(OC)c(OC)c2)cc(C(=O)OC)c1,inactive: 0.669%,
COc1ccc(-c2nc(CNS(=O)(=O)c3cccc(F)c3)cs2)cc1,,active: 15.8 µM
Cc1ccc(S(=O)(=O)N2CCCC(C(=O)NCc3ccc4c(c3)OCO4)C2)cc1 (centres undefined),inactive: -6.38%,
CC(=O)Nc1cnc(-c2ccccc2O)cn1,inactive: -0.825%,
CCCc1nnc(SCC(=O)NC2CCCC2)n1CCOC,inactive: 7.57%,
COc1ccccc1-c1nc(-c2ccccc2)[nH]c(=O)c1C#N,inactive: 11.4%,
CC(C)CC(N)c1csc(Nc2ccc(C(=O)N(C)Cc3ccccc3)cn2)n1 (centres undefined),inactive: -5.92%,
COc1ccc2c(c1)c(C(=O)CN1CCC3(CC1)OCCO3)c(C)n2C,inactive: 3.96%,
O=C(c1cccc(C(F)(F)F)c1)N(c1ccccn1)C1CCCCC1,inactive: 1.04%,
CC(C)CNc1nc(N)c([N+](=O)[O-])c(N2CCCCCC2)n1,inactive: 8.15%,
